PubChem BioAssay AID938 (National Center for Advancing Translational Sciences (NCATS), 2007)
About 1,800 (2.5%) of roughly 73,000 compounds were called active. Inconclusive means that the source gave no clear call. Such entries were picked first, then a sample of the others. Calls come from the whole dose curve; as a rule, active = well fitted activation curve with a large enough effect; inconclusive = small, poorly fitted or top-dose-only effect; inactive = no such curve, though single readings can be large or run the other way. No potency is given beside an inconclusive call; the fits are too rough.

assay: qHTS Assay for Agonists of the Thyroid Stimulating Hormone Receptor: Activators of Intracellular cAMP Concentrations in Parental HEK 293; settings: parental HEK293 CNG cAMP sensor, membrane potential fluorescence; activation: at 57.1 µM (top of the series) unless noted; note: nearly all actives have a fitted effect of over 55% in size; for activation: % of control where 0% means no effect
Method in brief: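 Counterscreen for endogenous-receptor signalling: CNG-channel HEK 293 cells report cAMP rise by membrane depolarization. After 60 min dye equilibration with 100 uM RO 20-1724, compounds incubated 30 min before bottom-read fluorescence at 590 nm.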
Potency is the fitted concentration of half-maximal effect; tags give direction and shape of the fitted curve.

Row | SMILES | Potency | activation
1 | O=C(c1ccc2c(c1)OCO2)N(CC1CCCO1)C1(C(=O)NC2CCCC2)CCCCC1 (stereo unspecified) | inconclusive [activator, full curve] | 
2 | COc1ccccc1-c1nccc(NCc2cccc(C)c2)n1 | inconclusive [activator, single point] | 
3 | COc1ccc(OC)c(N=c2oc3cc(O)ccc3cc2C(N)=O)c1 | inactive | 
4 | C=CCn1c(SCC(=O)Nc2cc(C)nn2-c2ccccc2)nnc1C1CCCCC1 | inconclusive [activator, single point] | 
5 | CCN(CC)CCNc1nc2ccccc2n1C | inactive | 
6 | CCCCOn1c(C)c(C(=O)OCC)c2c3nonc3ccc21 | active: 12.6 µM | 
7 | COc1ccccc1CNc1ccnc(-c2cccnc2)n1 | inconclusive [activator, single point] | 
8 | O=C(C1CCN(S(=O)(=O)c2cccc3cccnc23)CC1)N1CC=C(c2ccccc2)CC1 | inconclusive [activator, partial curve] | 
9 | O=C(Cn1cnc2c(nnn2Cc2ccc(Cl)cc2)c1=O)NCC1CCCO1 (stereo unspecified) | inconclusive [activator, single point] | 
10 | O=C(NC1CCCCC1)c1nc2c(nnn2Cc2ccccc2Cl)c(=O)[nH]1 | inconclusive [activator, partial curve] | 
11 | CCN1C(=Nc2ccc(Cl)cc2)SC/C1=C\C(=O)OC | inconclusive [activator, single point] | 
12 | COc1ccc2oc(-c3ccc(O)cc3)cc(=O)c2c1 | inconclusive [activator, single point] | 
13 | Cc1nc(N2CCOCC2)c2nc(-c3ccccc3)n(CCCN3CCCCC3C)c2n1 (stereo unspecified) | inconclusive [activator, single point] | 
14 | COc1ccc(C2CC(C(F)(F)F)n3nc(C(=O)NCCCn4ccnc4)cc3N2)cc1OC (stereo unspecified) | inconclusive [activator, single point] | 
15 | COc1ccc(C)cc1NS(=O)(=O)c1cccc2cccnc12 | inconclusive [activator, partial curve] | 
16 | CCCCCCCCCCCCC/C=C\[C@@H](O)[C@@H](N)CO | inactive | 
17 | COC(=O)c1ccc(C(=O)OC)c(NC(=O)CCc2ccc(C)o2)c1 | inconclusive [activator, partial curve] | 
18 | Cc1nc(NC2=NCN(CCc3ccccc3)CN2)nc2ccccc12 | inconclusive [activator, single point] | 
19 | CC1=C(C(=O)OC(C)C)C(c2cccc(F)c2)N2C(=O)C(C)SC2=N1 (stereo unspecified) | inconclusive [activator, single point] | 
20 | COC(=O)COc1ccc2c(=O)c(Oc3ccccc3)c(C)oc2c1 | inconclusive [activator, single point] | 
21 | OCC1OC(c2ccc3c(c2)OCO3)C=CC1Oc1cc(Cl)cc(Cl)c1 (stereo unspecified) | inconclusive [activator, single point] | 
22 | NCCc1nnc(SCc2c(F)cccc2Cl)o1 | inactive | 
23 | COc1ccc2[nH]cc(CCNc3ncncc3-c3ccoc3)c2c1 | inconclusive [activator, full curve, poor fit] | 
24 | CCc1ccc(NC(=O)c2cc(-c3ccco3)on2)cc1 | inactive | 

Row | SMILES | Potency | activation
25 | CCOc1cccc(-n2nnnc2-c2ccc(OC)cc2)c1 | inconclusive [activator, partial curve] | 
26 | Nc1ncnc2nc(-c3ccc(N4CCOCC4)nc3)cc(-c3cccc(Br)c3)c12 | inconclusive [activator, partial curve] | 
27 | COCCn1c(SCC(=O)N2CCCc3ccccc32)nc2ccccc2c1=O | active: 20 µM | 
28 | CCCCn1c(SCC(=O)NC(=O)NCc2ccco2)nc2cc(S(N)(=O)=O)ccc21 | inactive | 
29 | Cn1c(=O)[nH]c(=O)c2c1nc(N1CCc3ccccc3C1)n2CCSc1nc2ccccc2s1 | inconclusive [activator, single point] | 
30 | COCCCNC(CC(=O)Nc1ccc(N(C)C)cc1)C(=O)O (stereo unspecified) | inconclusive [activator, single point] | 
31 | O=c1ccc2c(OCCCCc3ccccc3)c3ccoc3cc2o1 | active: 25.1 µM | 
32 | CCc1nc(SCC(=O)N2CCN(C(=O)c3ccco3)CC2)c2c3c(sc2n1)CCCC3 | inactive | 
33 | COc1ccc(-c2ccc(-c3noc(C(C)C)n3)c(OC)n2)cc1 | inconclusive [activator, partial curve] | 
34 | CCN(CC)S(=O)(=O)c1cccc(-c2nnc(SCCCC(=O)c3ccc(F)cc3)o2)c1 | inconclusive [activator, partial curve] | 
35 | FC(F)(F)COc1nc(OCC(F)(F)F)nc(N2CCN(c3ccccc3)CC2)n1 | inconclusive [activator, full curve] | 
36 | Cc1cc(C(=O)N2CCN(c3ncccn3)CC2)sc1-c1ccccc1 | inconclusive [activator, single point] | 
37 | CCOC(=O)CSc1nnc(CNC(=O)c2cc(OC)c(OC)c(OC)c2)n1C | inconclusive [activator, single point] | 
38 | CC1CN(C(=O)c2cnn3c(C(F)F)cc(-c4ccccc4)nc23)CC(C)O1 (stereo unspecified) | inconclusive [activator, single point] | 
39 | CCOC(=O)CN1C(=O)C(CC)Oc2ccc(Cl)cc21 (stereo unspecified) | inconclusive [activator, partial curve] | 
40 | Cn1cc(-c2nc3cncnc3n(C3CC3)c2=O)c2ccccc21 | inactive | 
41 | CS(=O)(=O)Nc1ccc([N+](=O)[O-])cc1Oc1ccccc1 | inconclusive [activator, single point] | 
42 | Cc1ccc(C(=O)NCc2ccco2)cc1S(=O)(=O)N1CCCCC1 | inconclusive [activator, single point] | 
43 | COCCn1c(=O)c(-c2ccc(Cl)cc2)nc2cnc(N3CCOCC3)nc21 | inactive | 
44 | Nc1nc(CSc2ncn(-c3ccccc3)n2)cs1 | inactive | 
45 | CC[C@]1(O)C[C@H]2CN(CCc3c([nH]c4ccccc34)[C@](C(=O)OC)(c3cc4c(cc3OC)N(C)[C@@H]3[C@](O)(C(=O)OC)[C@H](OC(C)=O)[C@]5(CC)C=CCN6CC[C@]43[C@@H]65)C2)C1 | inactive | 
46 | CCCCOc1ccc(C(=O)O)cc1 | inactive | 
47 | Cc1nc2cc(-c3cccc(Cl)c3)nn2c(N2CCN(C(=O)c3ccco3)CC2)c1C | inactive | 
48 | CCOC(=O)N1CCC(NC(=O)C2CCC(Cn3c(=O)[nH]c4ccccc4c3=O)CC2)CC1 (stereo unspecified) | inconclusive [activator, single point] | 

Row | SMILES | Potency | activation
49 | O=C(NCCOC(=O)c1ccc(S(=O)(=O)N2CCOCC2)cc1)c1cccnc1 | inconclusive [activator, single point] | 
50 | Cc1csc(N(C(=O)c2cccc(S(=O)(=O)N(C)C)c2)c2ccccc2)n1 | inconclusive [activator, single point] | 
51 | C=CCNc1oc(-c2ccc(OCC)cc2)nc1C#N | inactive | 
52 | O=S(=O)(Nc1ccc2c(c1)OCO2)c1ccc(Br)s1 | inactive | 
53 | CSc1nc2sc3c(c2c(=O)n1C)CCC(C)C3 (stereo unspecified) | inconclusive [activator, single point] | 
54 | COc1cc(C(=O)NCCC2=CCCCC2)cc(OC)c1OC |  | inactive: 14.8% [at 11.4 µM]
55 | O=C(Cn1ncn2c(cc3ccccc32)c1=O)NCc1ccco1 | inconclusive [activator, single point] | 
56 | COc1ccc(OC)c(NC(=O)CN2C(=O)c3ccccc3S2(=O)=O)c1 |  | inactive: 6.04% [at 11.4 µM]
57 | CCCn1c(C)nc2c(c1=O)c1nc3ccccc3nc1n2CCc1ccccc1 | inconclusive [activator, full curve] | 
58 | Cc1ccc(C(C)C)c(OCc2nc(-c3nonc3N)no2)c1 | inconclusive [activator, partial curve] | 
59 | COc1ncc2nc(-c3cccc(C#N)c3)c(=O)n(CCC#N)c2n1 | inactive | 
60 | CCN(CC)c1nc(C#N)nc(N(CC)CC)n1 | inconclusive [activator, partial curve] | 
61 | O=c1c2cnn(-c3ccccc3Cl)c2ncn1Cc1cccnc1 | inactive | 
62 | CC(CN1CCN(C)CC1)OC(=O)c1ccc(Cl)cc1 (stereo unspecified) | inconclusive [activator, single point] | 
63 | Cc1nc(NC(C)c2ccccc2)c2oc3ccccc3c2n1 (stereo unspecified) | active: 15.8 µM | 
64 | COc1cc(Cn2c(-c3nonc3N)nc3ccccc32)ccc1C | active: 25.1 µM | 
65 | Cc1ccc(Cn2c3ccccc3c3cn[nH]c(=O)c32)cc1 | inconclusive [activator, single point] | 
66 | CCC(=O)n1nc(-c2ccccc2)nc1NCc1ccccc1 | inconclusive [activator, partial curve] | 
67 | COc1ccccc1CNc1ccnc(-c2ccccc2Cl)n1 | inconclusive [activator, single point] | 
68 | COc1ccc2nc(SCC(=O)Nc3ccc(S(=O)(=O)N4CCCC4)cc3)c(C#N)cc2c1 | active: 3.16 µM | 
69 | CCCCCCCCCCC(C)(C)C(=O)Nc1c(OC)cc(OC)cc1OC | inconclusive [activator, partial curve] | 
70 | Cc1nn(C(C)(C)C)c(OC(=O)C2CCCC2)c1S(=O)(=O)c1ccccc1 | inconclusive [activator, partial curve] | 
71 | COc1ccc2ccccc2c1C1CC(=O)N2CN(C)CSC2=C1C#N (stereo unspecified) | inactive | 
